Data published in the supplement of paper PMC10126150.
Values marked as one replicate rest on one cluster of the flow cell; about a third of the high ones do not repeat.

System: ATP
Experiment: switch fluorescence ratio, 500 uM ATP over buffer (Cy3 cluster intensity, sum of 5 cycles each) (fold (ratio)); higher = stronger signal-on switching upon ATP binding; sequences stand for … in TCGTCGGCAGCGTCAGATGTGTATAAGAGACAGTTTTTTTTTTTTTTTTTTTTTTTTT…TC
Settings: aptamer strand: ATP DNA aptamer (quencher-CACCTGGGGGAGTATTGCGGAGGAAGG + anchor), 100 nM annealed; ATP concentration: 500 uM; one replicate
Procedure, shortened: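 Clusters with intensities outside 100-1000 RFU were excluded. The remaining Cy3-labelled switching-strand clusters on a modified Illumina MiSeq flow-cell had been annealed to 100 nM quencher-labelled ATP aptamer and imaged in selection buffer, then after 15 min with 500 uM ATP at 22 °C, for five cycles separated by NaOH stripping and re-annealing. The fluorescence ratio, averaged per switch-domain sequence, is each cluster's summed target-cycle Cy3 intensity over its summed buffer-cycle Cy3 intensity.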
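Further: ATP exposure 15 min at 22 °C before imaging.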

Sequence | switch fluorescence ratio
GGAGTAAATT | 0.972
AATAACCTGG | 1.2
CAGGCGTACA | 1.05
TTTTCGAACC | 1.02
GAAAAATTCT | 1.04
GCGGTTCGGT | 0.975
AAAAACAGCA | 1.01
ATAATTGCAA | 0.994
CGATGTGGCA | 1.07
TGACTCTAGA | 1.08
TGTAAACTCG | 0.956
TTGGTCAACG | 1.02
AGGCTCGGAG | 1.01
ATGCCCAATT | 0.977
GGGCCAGCAA | 1.43
GGTAATTAGA | 0.988
GGTGCGATAT | 1.48
GCTACCGCGT | 1.08
AGTTGAGTAT | 0.976
AGCTATGAAA | 1.06
CTTAATCATG | 0.986
ATTAGCAGGG | 0.99
TCGAGTTCG | 0.991

Sequence | switch fluorescence ratio
TGGTAGTCGC | 0.957
ACCGACATCT | 1.15
TCAAGCGCGG | 1.03
AGCATTGACG | 1.1
GTTCTCGGCC | 1.01
ATACATTGCA | 0.996
TACGGCTGAG | 1.01
TCCTGCATTT | 1.09
AATTGCGCGG | 1.02
CACTGGGGCT | 0.978
ACGGGGCTCG | 1.02
TAGGCTTGTC | 1
GAGTCAGGGG | 1.07
AGCGGGGTGT | 1.33
ACGTTTCTCC | 1.64
ACAATATCCG | 1.05
TCGGTTCAAC | 0.989
AGAAACGCT | 1.03
TTGGGCCCGA | 0.962
AACAGGCCGT | 1
AAGCCCCGCG | 0.922
TGGATGGGC | 1.03
GCCTAGCGAC | 1.13

Sequence | switch fluorescence ratio
GATTTCGTCG | 0.992
ATAGTCCCCA | 1.23
CTTATTTTTG | 0.981
GCGATGTGCA | 0.99
GGGGCAACAT | 1.04
GCGATTGAAG | 0.967
CTGGCAAATC | 2.16
ATGAAAGCG | 1.04
ATCGGGTAAA | 1.03
CATGCTTTGG | 0.991
GTGTCGGATG | 1
CATATCTTGA | 0.957
CTAGCCGAGC | 1.08
GACAAGGCCA | 1.04
CACTGGCCCG | 1.05
ATACTCCCAT | 2.02
ACCTATCGCA | 1.95
GCAAGCACGC | 1.33
GTTAAGAG | 0.976
GCGGTAGGAT | 0.969
TTAAGCAAAA | 1.15
ACCGATTTG | 0.991
GGCTATGTT | 1.03

Sequence | switch fluorescence ratio
TAAGCTGTTT | 0.986
TGGTGCTGCT | 0.993
ACAAACTAAG | 1.1
CGGAAAAGTA | 1.03
ATAAAAGCAG | 1.02
TTTTACGCAT | 1.43
CCCTTAGCGG | 1.04
TTACCATCTT | 1.06
GGGGTCCGGG | 1
TAGTCTATCC | 0.981
TGAGGATAAC | 0.998
TTGCCTTTAG | 0.974
CTGTTCGGGG | 1.01
ATCTTGACGG | 0.989
TTTAAAAGTA | 1.03
CGTTGGCGCC | 0.996
GATGTTAAT | 0.986
TAAAGCAATG | 1.29
GACGTTATC | 1.19
GGTTTGCTAT | 0.973
CTACTATTAA | 1.02
CGGATTGCGG | 0.968
GAACGGAGGT | 0.993

Sequence | switch fluorescence ratio
TGCACCCGGG | 1.01
CGACGGGCAT | 1.06
AGAATGGTGC | 1.05
TACTAGTACT | 1.11
ACGTCAAATC | 1.36
CCGTCCTTG | 1.01
ACTGAAAGGA | 1.04
GGCCTAGCAA | 2.13
TAAACATCCC | 1.05
CGTCTGACGG | 1.02
CTGATACCGT | 1.08
CAAAGGCATT | 0.96
ACTCAGGCTT | 1.11
CAAGGGGAAG | 0.984
AAGCGGTTGG | 1.04
ACTTCTCTGG | 1.03
TGCCGGAGTC | 1.01
CGTGGGGACG | 1.02
ATTTGTAAG | 1.01
CGGAGTGTTA | 1.13
GGTGAACCTA | 1.04
ATCGAGCTAT | 1.07
GACCATGTCG | 1.1

Sequence | switch fluorescence ratio
AATCA | 0.961
CCCATTAATT | 1.42
CGGATACGAA | 1.04
CCCGTGGGTG | 3.42
GATATGAGCC | 1.03
ATCATCTTCC | 2.33
TAGTGGCGCG | 1.06
ACTGGATCGG | 1.02
TGGGTGATC | 1
CCGACATCGA | 2.96
GCAAGAAAGC | 1.02
AATTTGCTCC | 1.06
ACCCCGCGTC | 2.7
GATTCAATTA | 1.02
AACATAGTAT | 1.02
GAGCTCA | 0.999
GTTGACGGTT | 0.986
CAAGGGTGC | 1.03
ATCACATCA | 1.06
TGCTTCTCCC | 1.26
CATCAAAGCG | 0.97
TAAGCCGGAA | 1.04
TGTGACACAA | 0.964

Sequence | switch fluorescence ratio
CTAGATGATT | 1.01
ACCGTTATTG | 1.02
ATTCGGGGCC | 1.05
GTTTTGAGC | 0.97
ATCTCGACAT | 0.994
ATCCACCGTT | 1.07
CGGAAGCCGC | 0.939
ACTTCGAGGG | 1.31
CCAATGAG | 1.05
TTTTCCAACT | 0.957
GTCGATAGCT | 0.973
CCTTGCTGC | 2.63
CACAGAAGTA | 0.97
ACAATCCTGA | 1.07
ACATCCATTC | 1.02
TGCGACGGGA | 1.05
CGGCCTCAAG | 1.02
CCCCAACCGG | 1.01
TTATCTTTTC | 1.02
TTGAAAATTT | 0.991
